# Measured values: the supplement of paper PMC9334596
# Where “and” joins values, the source holds several entries; their conditions need not be identical. Identical values can stand only once. In all, about 5,300 compounds were measured (“PER2::LUC luminescence relative to vehicle control”: median about 0.96, highest 2% from about 1.3 on). The list shows a part of the results.
# Test system: mPer2Luc MEF
# Test: PER2::LUC luminescence relative to vehicle control (fold of vehicle); higher = higher PER2::LUC reporter signal
# Conditions: 10 µM
# Summary of the method: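 In 384-well plates, ~3000 mPer2Luc reporter mouse embryonic fibroblasts per well were cultured in DMEM with 10% FBS at 37 °C and 5% CO2 for 48 h before compounds from commercial libraries were added at 10 μM. ONE-Glo luciferase readings were taken 24 h and 30 h after treatment. Each value is PER2::LUC luminescence given as fold of vehicle control.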
SMILES,PER2::LUC luminescence (time after treatment 24 h),PER2::LUC luminescence (time after treatment 30 h)
COc1ccc2c3c([nH]c2c1)C(C)=NCC3,0.894,0.968
C[C@@H](N)Cc1cnc[nH]1,1.02 and 0.942,1.03 and 0.837
Cc1cc(O)c2c(=O)c3c(O)cc(O)c4c5c(O)cc(O)c6c(=O)c7c(O)cc(C)c8c1c2c(c34)c(c78)c65,1,0.956
[N-]=[N+]=CC(=O)OC[C@H](N)C(=O)O,0.86,0.969
Cc1nc(N)sc1CCN,0.98,1.03
C[N+]1([O-])[C@@H]2CC[C@H]1C[C@@H](OC(=O)C(CO)c1ccccc1)C2 (some centres undefined),1 and 1.01,0.993 and 0.843
NCCCP(=O)(O)CC1CCCCC1,1.02,1.02
O=C(O)CCCCCCNC1c2ccccc2CCc2ccccc21,1.03,0.973
NCC(O)c1ccc(O)cc1 (racemic),0.998 and 1.02,1.12 and 0.951
N=C1NC(=O)N2CC12 (centres undefined),0.838,1.14
CC[C@@H](c1cccc(O)c1)[C@@H](C)CN(C)C,0.899,0.879
CN(C(=O)Cc1ccc(Cl)c(Cl)c1)C(CN1CCCC1)c1cccc(OCC(=O)O)c1 (centres undefined),0.985,0.782
NCCc1ccc(O)cc1,1.03 and 0.947,0.942 and 0.934
CN(C)C(=O)Oc1cc(OC(=O)N(C)C)cc(C(O)CNC(C)(C)C)c1 (centres undefined),0.917,0.877
CCn1cc(C(=O)O)c(=O)c2cc3c(cc21)OCO3,0.916,1.04
C[C@]12CC[C@H](O)C[C@@H]1CC[C@@H]1[C@@H]2CC[C@]2(C)C(=O)CC[C@@H]12,0.895,0.872
C[N+]1(C)[C@@H]2C[C@@H](OC(=O)[C@H](CO)c3ccccc3)C[C@H]1[C@@H]1O[C@@H]12,1.08 and 0.885 and 0.502,1.04 and 0.844 and 1.09
C[C@@H]1OC(=O)[C@H]2C[C@H]3CCCC[C@@H]3[C@@H](/C=C/[C@H]3CCC[C@H](C)N3C)[C@@H]12,0.807,0.884
CC1=C[C@]23C(=O)[C@@H](C=C(CO)[C@@H](O)[C@]2(O)[C@H]1O)[C@H]1[C@@H](C[C@H]3C)C1(C)C,0.981,0.957
CC(C)C[C@H](NC(=O)[C@H](Cc1ccccc1)NC(=O)CNC(=O)[C@@H](CO)NC(=O)[C@@H](N)Cc1ccc(O)cc1)C(=O)N[C@H](C(=O)O)[C@@H](C)O,1.02,1.01
C[C@H](Cc1ccc2c(c1)OC(C(=O)O)(C(=O)O)O2)NC[C@H](O)c1cccc(Cl)c1,0.982,0.881
CCC1(c2ccc(N)cc2)CCC(=O)NC1=O (centres undefined),0.877,1.03
C[N+]1(C)CCN(c2ccccc2)CC1,0.844,0.997
NC(=O)COc1c(F)cc(SCCNS(=O)(=O)c2ccccc2)cc1F,0.994,0.795
CCCN1CCC[C@H](c2cccc(O)c2)C1,1.02,0.848
CC[C@@]1([C@@H]2O[C@@H]([C@H]3O[C@@](O)(CO)[C@H](C)C[C@@H]3C)C[C@@H]2C)CC[C@H]([C@]2(C)CC[C@]3(C[C@H](O)[C@@H](C)[C@@H]([C@@H](C)[C@@H](OC)[C@H](C)C(=O)O)O3)O2)O1,0.255,0.203

SMILES,PER2::LUC luminescence (time after treatment 24 h),PER2::LUC luminescence (time after treatment 30 h)
CCN(C)C(=O)Oc1cccc([C@H](C)N(C)C)c1,1.1 and 0.692,1.22 and 0.879
CC(=O)C1CCC2C3CCC4C[C@H](O)CCC4(C)C3C[C@H](O)C12C (some centres undefined),0.95,0.944
O=[N+]([O-])c1cc([As](=O)(O)O)ccc1O,1.08,1.54
COc1ccc2c(c[n+](C)c3c4cc5c(cc4ccc23)OCO5)c1OC,0.221,0.264
Cc1c(Cl)cccc1S(=O)(=O)Nc1nc(CC(=O)N2CCN(C)CC2)cs1,0.98,1.02
CCN1C[C@]2(COC(=O)c3ccccc3N3C(=O)C[C@H](C)C3=O)CC[C@H](OC)[C@@]34[C@@H]5C[C@H]6[C@H](OC)[C@@H]5[C@](O)(C[C@@H]6OC)[C@](O)([C@@H](OC)[C@H]23)[C@@H]14,0.723,0.947
C[C@]12C=CC(=O)C=C1CC[C@@H]1[C@@H]2CC[C@]2(C)C(=O)CC[C@@H]12,0.808,0.817
CCN1C[C@]2(OC(=O)c3ccccc3NC(C)=O)CC[C@H](OC)[C@@]34[C@@H]2C[C@@H]([C@@H]13)[C@@]1(O)C[C@H](OC)[C@H]2C[C@@H]4[C@]1(O)[C@H]2OC,0.983,0.939
CC(=O)CC1CCCCN1 (centres undefined),1.07,1.09
CCN1C[C@]2(COC)[C@H](O)C[C@H](OC)[C@@]34[C@@H]5C[C@@]6(O)[C@H](OC(=O)c7ccccc7)[C@@H]5[C@@](OC(C)=O)([C@@H]([C@H](OC)[C@H]23)[C@@H]14)[C@@H](O)[C@@H]6OC,0.896,0.934
CC(C)(Cc1c[nH]c2ccc(Cl)cc12)NCCOc1ccccc1OCC1CC1,0.692,0.719
O=c1[nH]c2ccccc2n1C1CCN(Cc2ccc(-c3[nH]c4cc5ncnc5cc4nc3-c3ccccc3)cc2)CC1,0.456,0.497
C[C@H]1O[C@@H](C[N+](C)(C)C)CS1,0.999,0.782
Cc1ccc(C[N+](C)(C)C)o1,0.969,1.03
CCCN1CCc2cccc3c2[C@H]1Cc1ccc(O)c(O)c1-3,0.856,0.747
C[C@]12CC[C@@H]3c4ccc(OC(=O)N(CCCl)CCCl)cc4CC[C@H]3[C@@H]1CC[C@@H]2O,0.908,0.795
C=C1[C@H]2C[C@@]3([C@@H]1O)[C@@H](CC2=O)[C@]12[C@@H]4C[C@H]3[C@H]1N(CC)C[C@]4(C)CC[C@@H]2O,1,0.997
COc1ccc(O)c(C(C)(C)C)c1.COc1ccc(O)cc1C(C)(C)C,0.868,1.18
CCCN(CCC)C1CCc2cccc(O)c2C1 (centres undefined),0.923,1.02
C=CCc1cc(OC)c2c(c1)OCO2,1.1,1.14
COc1ccc(C(=O)OC2CC3CCC(C2)N3C)cc1OC (centres undefined),0.888,0.897
C[C@]12N[C@H](Cc3ccccc31)c1ccccc12,1.02 and 0.951,1.08 and 0.93
C[N+]1([O-])[C@@H]2C[C@@H](OC(=O)[C@H](CO)c3ccccc3)C[C@H]1[C@@H]1O[C@@H]12 (some centres undefined),0.975,1.04
NCCc1ccccn1,0.99,1.45
CCNC(=O)C[C@H]1N=C(c2ccc(Cl)cc2)c2cc(OC)ccc2-n2c(C)nnc21,1.05,1.02
CO[C@@H]1C[C@@H](C[C@H]2CC[C@H](C)[C@H]([C@@H](C)C(=O)O)O2)O[C@]2(O[C@](C)([C@H]3CC[C@@](C)([C@@H]4O[C@@H]([C@H]5O[C@@](O)(CO)[C@H](C)C[C@@H]5C)C[C@@H]4C)O3)C[C@H]2C)[C@@H]1C,0.479 and 0.364,0.433 and 0.327
